Some of the results follow. These are noisy estimates, calculated here from bound and input reads.

The target in this test is T1, Pho4 (S. cerevisiae) (UniProt P07270).
T1 sequence: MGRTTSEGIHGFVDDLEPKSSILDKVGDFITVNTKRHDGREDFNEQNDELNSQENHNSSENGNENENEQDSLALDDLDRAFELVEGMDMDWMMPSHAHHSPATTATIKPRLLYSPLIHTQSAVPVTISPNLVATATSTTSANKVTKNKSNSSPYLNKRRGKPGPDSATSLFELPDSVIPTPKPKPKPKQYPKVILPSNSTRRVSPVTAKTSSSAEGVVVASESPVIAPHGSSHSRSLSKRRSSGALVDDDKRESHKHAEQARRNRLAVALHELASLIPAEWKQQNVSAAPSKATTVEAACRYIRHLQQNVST
Put plainly: relative binding free energy (BET-seq); higher = weaker binding. Conditions: reference: library average.
For TATGTCACGTGTAAGA, the “relative binding free energy” value is -0.13 kcal/mol.
For CTGGGCACGTGTTGGT, the “relative binding free energy” value was 0.06 kcal/mol.
The value for GTTTACACGTGGGCGC was 0.07 kcal/mol; that for TTCAGCACGTGTTATT was -0.09 kcal/mol; that for CGTGGCACGTGATGGT was 0.03 kcal/mol.
As for GGCTTCACGTGATGTA, the “relative binding free energy” value came to 0.36 kcal/mol.
In the case of TATTACACGTGGAAGT, the “relative binding free energy” value was 0.01 kcal/mol.
To GAGTCCACGTGGTTGT belongs -0.1 kcal/mol; to GGGGACACGTGCTTGG, 0.14 kcal/mol.
The value for GGGGTCACGTGTGTCT was 0.11 kcal/mol.
As to AAGGTCACGTGAGATT, the “relative binding free energy” value is 0.3 kcal/mol.
The value for GGTGGCACGTGAATGT was 0.24 kcal/mol.
The value for ATGCTCACGTGATGGG was 0.41 kcal/mol.
The value for AGAGACACGTGTGAGT was 0.08 kcal/mol; that for ATTTGCACGTGACGTG was 0.02 kcal/mol.
For AGTCTCACGTGTGTAA, the “relative binding free energy” value is 0.27 kcal/mol.
On to CTGGACACGTGATGGT, for which the “relative binding free energy” value worked out at 0.29 kcal/mol.
On to GTCGCCACGTGTTGTG, for which the “relative binding free energy” value was found to be 0.04 kcal/mol.
To TCTTTCACGTGTTGTA belongs 0.23 kcal/mol.
Regarding TTCTTCACGTGGTTCA, the “relative binding free energy” value amounted to 0.21 kcal/mol.
On to ACTATCACGTGTAGGT, for which the “relative binding free energy” value was 0.19 kcal/mol.
In the case of GAATTCACGTGATATT, the “relative binding free energy” value was 0.31 kcal/mol.
For the sequence AGAGTCACGTGTTTCG, the “relative binding free energy” value came out at 0.23 kcal/mol.
The value for CTGTACACGTGTGGAC was 0.28 kcal/mol.
The value for TGGTTCACGTGACGTG was 0.38 kcal/mol; that for TGGAGCACGTGCTGGT was -0.07 kcal/mol; that for TTTCACACGTGGTGTT was -0.03 kcal/mol.
Take GTGTGCACGTGAAGAT: the “relative binding free energy” value came to 0.27 kcal/mol.
To AATGTCACGTGTGTGG belongs 0.16 kcal/mol; to GTAGCCACGTGAGTTT, 0.22 kcal/mol.
To GTCGTCACGTGGGTTT belongs 0.08 kcal/mol; to TGTGGCACGTGGTCAT, -0.32 kcal/mol; to GGTGTCACGTGAGTCG, 0.45 kcal/mol.
On to TTGTACACGTGGGATT, for which the “relative binding free energy” value was 0.02 kcal/mol.
On to ATATTCACGTGGTGAT, for which the “relative binding free energy” value was found to be 0.11 kcal/mol.
To AGTAGCACGTGGGCTT belongs -0.25 kcal/mol.
As to TTATGCACGTGCGGCT, the “relative binding free energy” value is -0.09 kcal/mol.
The value for GAGGTCACGTGCGGGC was 0.14 kcal/mol.
The value for CTTAGCACGTGTGTCG was -0.03 kcal/mol; that for GGTAGCACGTGGACTT was -0.03 kcal/mol; that for AGGCTCACGTGGGCGT was -0.03 kcal/mol.
As for GGGTGCACGTGAGAGG, the “relative binding free energy” value was determined as 0.17 kcal/mol.
For the sequence TGTATCACGTGCAGTT, the “relative binding free energy” value is 0.16 kcal/mol.
The value for TCGGTCACGTGACGGG was 0.2 kcal/mol; that for TAGAACACGTGGGTGG was -0.15 kcal/mol; that for GTTTGCACGTGGTCAA was -0.09 kcal/mol.
Regarding TTTTACACGTGAATAG, the “relative binding free energy” value worked out at 0.33 kcal/mol.
The value for GTGGCCACGTGTTGCG was -0.13 kcal/mol; that for GATTCCACGTGGAGGT was 0.22 kcal/mol.
In the case of TTACTCACGTGAAGGG, the “relative binding free energy” value was found to be 0.47 kcal/mol.
To AGTGTCACGTGTTTTC belongs 0.01 kcal/mol.
To AGGCGCACGTGTAGGG belongs -0.05 kcal/mol.
To AGAATCACGTGGCGTT belongs 0.11 kcal/mol; to TGGTGCACGTGGGACA, -0.16 kcal/mol.
For the sequence TGATTCACGTGGAAAT, the “relative binding free energy” value turned out to be 0.47 kcal/mol.
To TTAAGCACGTGGTGTG belongs -0.16 kcal/mol.
To GTGGGCACGTGGACAT belongs -0.07 kcal/mol; to GGGCCCACGTGAAGGG, 0.15 kcal/mol.
With TGATTCACGTGCGATT, the “relative binding free energy” value was 0.34 kcal/mol.
To TTTGACACGTGAGAGG belongs 0.23 kcal/mol; to GTGATCACGTGAAATG, 0.36 kcal/mol.
Turning to CGATACACGTGAGGTT, the “relative binding free energy” value was found to be 0.52 kcal/mol.
In the case of TGATACACGTGGGACG, the “relative binding free energy” value stood at 0 kcal/mol.
As to CGGAGCACGTGTGGAG, the “relative binding free energy” value is -0.17 kcal/mol.
Turning to GTGGTCACGTGTCATG, the “relative binding free energy” value was found to be 0.16 kcal/mol.
The value for AGAGTCACGTGTTCGT was 0.04 kcal/mol; that for GGGTTCACGTGTTCGT was 0.35 kcal/mol.
As to TATGTCACGTGGGTGC, the “relative binding free energy” value was -0.1 kcal/mol.
Turning to TAGGGCACGTGAATTA, the “relative binding free energy” value stood at 0.23 kcal/mol.
Take TTACACACGTGTTTGA: the “relative binding free energy” value is -0.05 kcal/mol.
For the sequence TGGTGCACGTGCAGGA, the “relative binding free energy” value was -0.11 kcal/mol.
In the case of TGCGTCACGTGTTTCT, the “relative binding free energy” value turned out to be 0.11 kcal/mol.
For the sequence GGAGGCACGTGAGTGC, the “relative binding free energy” value amounted to 0.21 kcal/mol.
Consider AAGTTCACGTGCTAGG, for which the “relative binding free energy” value was 0.21 kcal/mol.
The value for TGTGGCACGTGGCATT was -0.15 kcal/mol; that for CGATACACGTGGGCGT was -0.02 kcal/mol.
The value for CTTGGCACGTGGGCGC was -0.18 kcal/mol.
To GACTGCACGTGGGGCG belongs -0.09 kcal/mol; to GGGGACACGTGCTTTA, -0.03 kcal/mol.
ACCTGCACGTGGGTTT: the “relative binding free energy” value is -0.1 kcal/mol.
For the sequence AGTGGCACGTGATAAG, the “relative binding free energy” value amounted to 0.1 kcal/mol.
To TTTTTCACGTGTGGAC belongs 0.39 kcal/mol.
The value for TTCAGCACGTGGAGAT was 0.01 kcal/mol; that for CGAGTCACGTGTGTCT was 0.15 kcal/mol.
On to TTAAGCACGTGATTTC, for which the “relative binding free energy” value is 0.11 kcal/mol.
Turning to TTTGACACGTGATCGG, the “relative binding free energy” value was -0.03 kcal/mol.
TCGTTCACGTGCGTTA: the “relative binding free energy” value was determined as 0.2 kcal/mol.
To CGGTACACGTGATAGT belongs 0.3 kcal/mol; to CAGGGCACGTGTTATT, -0.04 kcal/mol; to GGTTACACGTGGAGAG, 0.14 kcal/mol.
Regarding CGGTTCACGTGGTGGT, the “relative binding free energy” value came out at 0.2 kcal/mol.
For the sequence GATGCCACGTGTGGTG, the “relative binding free energy” value is 0.1 kcal/mol.
On to GATATCACGTGTATTG, for which the “relative binding free energy” value was found to be 0.15 kcal/mol.
Regarding TTAGACACGTGCATTG, the “relative binding free energy” value was found to be 0.06 kcal/mol.
To TGGAGCACGTGGGCTT belongs -0.19 kcal/mol; to TTCGGCACGTGTCAGT, -0.11 kcal/mol; to ATAGGCACGTGGTCTA, -0.25 kcal/mol.
The value for TGAGACACGTGGTAAT was 0.07 kcal/mol.
The value for AAGTGCACGTGTGCTT was -0.08 kcal/mol.
Take TATTACACGTGTCGGT: the “relative binding free energy” value is 0.14 kcal/mol.
With GTTGCCACGTGAGGGA, the “relative binding free energy” value worked out at 0.19 kcal/mol.
Turning to AGGTCCACGTGGTATG, the “relative binding free energy” value is -0.1 kcal/mol.
Regarding ATATACACGTGGGTGC, the “relative binding free energy” value was -0.07 kcal/mol.
To TAAGCCACGTGCGGTT belongs 0.04 kcal/mol; to GTATACACGTGATGTC, 0.35 kcal/mol; to TGGCTCACGTGGCGGA, 0.07 kcal/mol.
In the case of TAGAGCACGTGTAATA, the “relative binding free energy” value is 0.07 kcal/mol.
Regarding TATTTCACGTGGTTGT, the “relative binding free energy” value came to 0.28 kcal/mol.
Take ACGTTCACGTGGTAGT: the “relative binding free energy” value amounted to 0.21 kcal/mol.
The value for GTGATCACGTGTGAAT was 0.26 kcal/mol.
Turning to ATGATCACGTGTCTGT, the “relative binding free energy” value worked out at 0.11 kcal/mol.
GGCGACACGTGGGAGC: the “relative binding free energy” value was found to be 0.16 kcal/mol.
The value for GGTAGCACGTGGTGGT was -0.02 kcal/mol.
The value for TTGAGCACGTGAGGGG was 0.14 kcal/mol.
On to GGTCACACGTGGTTGT, for which the “relative binding free energy” value was -0.06 kcal/mol.

(Values after the BET-seq Pho4 binding data (Le et al. 2018).)
